Measured values as given in ChEMBL document CHEMBL4888484, “Replenishing the malaria drug discovery pipeline: Screening and hit evaluation of the MMV Hit Generation Library 1 (HGL1) against asexual blood stage Plasmodium falciparum ,using a nano luciferase reporter read-out” (2022).
About 540 (0.36%) of roughly 150,000 compounds showed an effect of 50% or more. This is one part of the list.

These compounds were tested on Plasmodium falciparum (assay: Primary screen in NF54 nanoGlo assay, in single point, at 2uM, 72h; a lower Z score goes with more inhibition). Settings: timepoint 72 hour.
Type: functional, Erythrocyte

Compound	% Inhibition [%]	Z score
CC[C@H](CN(C)C)NC(=O)CCc1cccc(OC(F)F)c1	-10	1.69
Cn1ncc(CN2CCC(CCC(=O)O)CC2)c1C(F)(F)F	-7	0.92
COCCn1c(-c2cc(C)cs2)nnc1N1CCC(OC)CC1	2	-0.39
N#Cc1ccc(CN2CCC(Oc3cccc(F)c3)(C(=O)O)CC2)cc1	0	-0.01
CC1=C(CCN2CCC[C@H](C(N)=O)C2)C(C)(C)CCC1	1	-0.12
Cc1ccnc(Nc2cc(NCCNS(C)(=O)=O)nc(C)n2)c1	-5	0.95
CC(C)c1nc(CCN(C)C(=O)NCC2CCCCC2)no1	-8	1.09
O=C(NC[C@H]1CCCO1)c1nc(CCS(=O)(=O)c2ccc(Cl)cc2)no1	-8	1.09
O=C(NCC1(Br)CC1)Nc1ccncc1	-2	0.23
CCN(CC)C(=O)N1CCn2nnc(CCC(=O)N3CCOCC3)c2C1	-3	0.61
Cn1c(CN2CCCCC[C@H]2C2CCCCC2)nnc1C1CC1	-2	0.19
N#Cc1cccc(C(=O)N2CCC3(CC2)C[C@@H](Cc2cccc(F)c2)CCO3)c1	1	-0.12
O=C(Nc1nc2c(s1)CN(S(=O)(=O)c1ccccc1)CC2)c1cccs1	-4	0.4
C[C@H](NCCN(C)C1CCCCC1)c1cccnc1	-9	0.9
Cc1ccccc1-c1noc(-c2cccnc2NCCc2ccccc2)n1	2	-0.36
CN1CC2(C[C@H]1C(=O)NCCc1cccnc1)CN(Cc1ccccc1)C2	-15	1.77
CC1CN(C(=O)OC(C)(C)C)CC(C)N1C(=O)C1COCCO1 (stereo not given)	1	-0.1
Cn1ccc(CN2CCC(COc3cc(C4CC4)ncn3)CC2)cc1=O	-20	2.22
NC(=O)c1cccc(Oc2ncnc3ccsc23)c1	-4	0.47
Cn1ccnc1CN(Cc1cccnc1)C1CCCCCC1	2	-0.44
O=C(Nc1cccc(F)c1)c1nn(-c2ccc(F)cc2)c2ccccc2c1=O	-7	0.85
N#Cc1cccnc1NCCc1ccc(S(N)(=O)=O)s1	0	-0.06
Cc1ccc([C@H]2CN(C3CCOCC3)C[C@@H]2N)o1	-16	2.51
O=C1CCCN1c1ccccc1N(Cc1ccc(-n2cccn2)cc1)Cc1ccc(-n2cccn2)cc1	0	0.03
O=C(CNc1cccc(OCc2ccc(F)cc2)c1)NC1CC1	12	-1.12
O=C(Nc1ccc(N2CCN(C(=O)c3ccccc3Cl)CC2)nc1)c1cc(F)cc(F)c1	-8	1.07
CC(C)(C)OC(=O)NC[C@H]1CCN(CC(=O)NCc2ccco2)C1	-13	1.28
O=C(NCc1ccncc1)C1C2CCC(C2)N1C(=O)c1ccccc1 (stereo not given)	0	0.07

Compound	% Inhibition [%]	Z score
Cc1cnc(NCCN(C)S(C)(=O)=O)nc1N(C)C	-4	0.52
Cc1ncc(C(=O)NC2(C#N)CCCC2)c(C)n1	-11	1.17
COc1ccc(CCNC(=O)Cc2csc(NC(=O)c3ccc(Cl)cc3)n2)cc1OC	9	-1.54
CCn1c(CN(C)CC2CCN(CCO)CC2)nc2c(F)cccc21	-6	1.11
CC(=O)N1CCN(C(=O)c2ccccc2Nc2cccc(C(F)(F)F)c2)CC1	-3	0.4
CCc1nc(-c2ccccc2-n2cncn2)n(C(C)(C)C)n1	-7	0.6
CC1CN(S(=O)(=O)NCC(O)C2CC2)CC(C)O1 (stereo not given)	-1	0.11
CCC(CC)(CCO)CNC(=O)C1CC1C (stereo not given)	1	-0.12
CCN(CC)S(=O)(=O)c1ccc(Cl)c(C(=O)Oc2ccc(C)cc2-n2nc3ccccc3n2)c1	-8	1.29
CC(C)(C)C(=O)Nc1ccc(-n2cccc(C(=O)NCCN3CCOCC3)c2=O)cc1	-3	0.34
CCc1c(C)nc(N)nc1N[C@@H](C)c1ccc(C)cn1	4	-0.66
COC(=O)N[C@@H](C)c1nc(Cc2cccs2)nn1CC(F)(F)F	-6	1.03
COc1ccc2[nH]c3c(N4CC5(C)CC4CC(C)(C)C5)ncnc3c2c1 (stereo not given)	-10	1.27
Cc1cc(C(=O)Nc2ccccc2-c2nc3ccccc3s2)on1	2	-0.33
Cc1nn(C)c(C)c1S(=O)(=O)Cl	5	-0.62
COc1ccccc1C(=O)N1CCN(c2nc(-c3ccccc3)nc(C)c2C(C)C)CC1	-18	1.74
CCOC1CC(N(C)C(=O)Nc2ccn(C)n2)C12CCCCC2 (stereo not given)	-15	2.9
Cc1noc(C)c1C(=O)Nc1sc2c(c1C#N)CCCCC2	-4	0.52
CC[C@H]1CCCCN1C(=O)Cn1c(=O)n(Cc2ccc(F)cc2)c(=O)c2c1c(C)nn2CC	-3	0.55
Cc1ccc(-c2nsc(C(=O)NCCN3CCOCC3)c2N)cc1	-15	1.74
COc1ccc(CNC(=O)C2CCN(S(=O)(=O)c3ccc4c(c3)CCC4)CC2)cc1OC	-13	1.28
Cc1cnc(-n2ncc(C(=O)O)c2C2CC2)nc1-c1cccs1	-7	1.26
CC(C)Oc1ccc(NC(N)=NC2CC2C)cc1 (stereo not given)	-17	2.37
Brc1ccccc1[C@@H]1CN(C2CC2)CCN1	17	-2.13
O=C(Cn1cc(C2CC2)nn1)N(Cc1ccco1)c1cccc(F)c1	-9	1.1
CN1C[C@@H](C(=O)Nc2ccc(-n3cnnn3)cc2)CC1=O	-3	0.34
Cc1cncc(C(=O)N2CCC3(CC2)CC[C@]3(C)O)c1	-11	1.36
